Experimental data taken from article PMC4245550, “Exploring the Chemodiversity and Biological Activities of the Secondary Metabolites from the Marine Fungus Neosartorya pseudofischeri” (Marine Drugs, 2014).

What follows are compounds tested on RKO (a poorly differentiated colon carcinoma cell line) (assay: Cytotoxicity, MTS assay). Settings: Homo sapiens, 72 h.
For `CN1C(=O)C(=O)n2c(cc3ccccc32)C1=O` [Compound 5, 1,2,3,4-tetrahydro-2-methyl-1,3,4-trioxopyrazino[1,2-a]indole], the IC50 was > 50 µM.
`O=c1[nH]cc(F)c(=O)[nH]1` [5-Fluorouracil, reference compound] gave an IC50 of 45.9 ± 4.58 µM.
For `CSC1(CO)NC(=O)C(Cc2ccccc2)(SC)NC1=O` (stereo not drawn) [Compound 13, bis-N-norgliovictin], the IC50 was > 50 µM.
